Test results published in PubChem BioAssay (Tox21).
The shares of active, inactive and inconclusive entries below differ from those in the screen. For some assays here: No potency is given beside an inconclusive call; the fits are too rough. The source made the active and inactive calls. Unless noted, calls come from the whole dose curve; as a rule, active = well fitted curve in the direction sought with a large enough effect in the repeat runs; inconclusive = weak or mixed curves; inactive = no such curve, though single readings can be large; an effect the other way counts as inactive or inconclusive.

Key:
[1] = tested on: thyroid hormone receptor (rat, GH3 cells); assay: qHTS assay to identify small molecule agonists of the thyroid receptor (TR) signaling pathway (AID 743066; calls by dose curve; note: potency is the fitted concentration of half-maximal effect; for activation: % is set by controls: 0 for no effect and ±100 for the full control effect); details: GH3.TRE-Luc cells, TR agonist luciferase, 24 h; activation: at 83.9 µM (top of the series) unless noted
[2] = qHTS assay for small molecule agonists of the antioxidant response element (ARE) signaling pathway - cell viability counter screen (AID 743203; calls by dose curve; note: nearly all actives have a fitted effect of over 55% in size; note: potency is the fitted concentration of half-maximal effect); details: ARE-bla HepG2 viability, CellTiter-Glo luminescence, 16 h; viability change, negative = cytotoxic: at 73.3 µM (top of the series)
Summary of the method: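 Cytotoxicity was tested in parallel with the ARE reporter screen. ARE-bla HepG2 cells were exposed to compounds for 16 hrs, and viability was taken from CellTiter-Glo luminescence.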

[3] = qHTS assay to identify small molecule agonists of the hypoxia (HIF-1) signaling pathway (AID 1224846; active = well fitted activation curve with a large enough effect in the signal ratio in the repeat runs, not every such curve was filed as active; inconclusive = weak or mixed curves; the % refers to the signal ratio; note: potency is the fitted concentration of half-maximal effect); details: HRE-bla ME-180 cells, beta-lactamase ratio, 17 h; activation: at 76.8 µM (top of the series) unless noted
Summary of the method: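 Compounds from the Tox21 10K library, dissolved in DMSO, are tested for induction of a hypoxia response element–controlled beta-lactamase reporter in ME-180 cells. Exposure lasts 17 hrs at 37C after a 5 hr settling period, followed by CCF4-AM FRET substrate.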

[4] = A CellTox Green Cytotoxicity Assay to monitor cytotoxicity in HepG2 cells - 24 hour (AID 1224878); note: nearly all actives have a fitted effect of over 45% in size; note: potency is the fitted concentration of half-maximal effect
Summary of the method: (§1)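 Cells and non-lytic dye reagent are dispensed together (600 HepG2 cells/well) and incubated 5 h before DMSO compound transfer. Kinetic fluorescence is then recorded in the same wells during 40 h at 37 C.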

[5] = A CellTox Green Cytotoxicity Assay to monitor cytotoxicity in HEK293 cells - 32 hour (AID 1224881); note: nearly all actives have a fitted effect of over 40% in size; note: potency is the fitted concentration of half-maximal effect
Summary of the method: (§2)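 Cells (HEK293, 600/well) and dye reagent are dispensed together. After 5 h at 37 C, 23 nL compound is pinned in. Plates stay at 37 C for 40 h with fluorescence read at 0h, 8h, 16h, 24h, 32h and 40h.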

[6] = A CellTox Green Cytotoxicity Assay to monitor cytotoxicity in HEK293 cells - 16 hour (AID 1224888); note: nearly all actives have a fitted effect of over 35% in size; note: potency is the fitted concentration of half-maximal effect
Summary of the method: as §2

[7] = qHTS assay to identify small molecule agonists of the sonic hedgehog signaling (Shh) pathway - cell viability counter screen (AID 1259366); note: nearly all actives have a fitted effect of over 50% in size; note: potency is the fitted concentration of half-maximal effect
Summary of the method: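 After a 4hr attachment at 37C, NIH/3T3 cells bearing an integrated Gli1-driven luciferase reporter were dosed with compounds. Treatment lasted 24hr, with the final hour including CellTiter-Fluor for a fluorescence viability measurement.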

[8] = qHTS assay to identify small molecule agonists of the androgen receptor (AR) signaling pathway in the presence of an antagonist - cell viability counter screen (AID 1259379); note: nearly all actives have a fitted effect of over 25% in size; note: potency is the fitted concentration of half-maximal effect
Summary of the method: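 Cytotoxicity is assessed by CellTiter-Fluor in MDA-kb2 cells carrying an MMTV-driven luciferase reporter. Cells receive 3.0uM nilutamide plus compounds at 15 concentrations and incubate 16 hr at 37C without CO2 before fluorescence reading.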

[9] = biological target: Cytochrome P450 3A4 (Homo sapiens) (UniProt P08684); assay: Cytochrome P450 Family 3 Subfamily A Member 4 (CYP3A4) small molecule antagonists: luciferase reporter qHTS assay (AID 1671201); note: nearly all actives have a fitted effect of over 50% in size; note: potency is the fitted concentration of half-maximal effect
Summary of the method: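 Setup: enzyme-substrate mix, compound pin transfer, 10 min RT. Reaction: NADPH regeneration solution, 1 h RT. Readout: detection reagent stops turnover, luminescence measured after 20 min, expressed in relative luminescence units.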

[10] = qHTS assay to identify aromatase inhibitors - cell viability counter screen (AID 743084); details: MCF-7 aro ERE viability, CellTiter-Fluor, 24 h; activity change, negative = cytotoxicity: at 70.3 µM (top of the series) unless noted;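 note: cells stimulated with testosterone during compound exposure; nearly all actives have a fitted effect of over 55% in size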; note: potency is the fitted concentration of half-maximal effect
[11] = qHTS assay to identify small molecule antagonists of the estrogen related receptor (ERR) signaling pathway from Tox21 library - cell viability counter screen (AID 1224834); note: % is set by controls: 0 for no effect and ±100 for the full control effect; nearly all actives have a fitted effect of over 30% in size
Summary of the method: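 ERR cells, 2,000/well; 6 h settle at 37 C/5% CO2; pin-tool compound transfer in DMSO; 17.5 h at 37 C; CellTiter-Fluor, 30 min; fluorescence intensity.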

[12] = biological target: Progesterone receptor (Homo sapiens) (UniProt P06401); assay: qHTS assay to identify small molecule agonists of the progesterone receptor (PR) signaling pathway (AID 1346784; calls by dose curve; note: nearly all actives have a fitted effect of over 30% in size; note: potency is the fitted concentration of half-maximal effect); details: PR-UAS-bla HEK293T, beta-lactamase FRET ratio, 16 h; activation: at 92.4 µM (top of the series) unless noted
Summary of the method: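 Using charcoal-stripped serum (2%) to limit endogenous steroids, PR-UAS-bla HEK 293T cells received compounds for 16 hr at 37C after 6 hr plating; beta-lactamase FRET fluorescence was recorded following 2 hr substrate loading at room temperature.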

[13] = qHTS assay for small molecule activators of the heat shock response signaling pathway (AID 743210; active = well fitted activation curve with a large enough effect in the signal ratio in the repeat runs, with a control signal flat, not every such curve was filed as active; inconclusive = weak or mixed curves; the % refers to the signal ratio; note: % is set by controls: 0 for no effect and ±100 for the full control effect); details: HeLa HSE-bla reporter, beta-lactamase ratio, 5 h; activation: at 62.6 µM (top of the series) unless noted
Summary of the method: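 Heat shock element–beta-lactamase HeLa reporter cells; qHTS with compounds for 5 h at 37 C; detection by FRET substrate fluorescence after 2.5 h at RT.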

[14] = A CellTox Green Cytotoxicity Assay to monitor cytotoxicity in HepG2 cells - 8 hour (AID 1224890); note: potency is the fitted concentration of half-maximal effect; nearly all actives have a fitted effect of over 45% in size
Summary of the method: as §1

[15] = biological target: Bile acid receptor (Homo sapiens) (UniProt Q96RI1); assay: qHTS assay to identify small molecule agonists of the farnesoid-X-receptor (FXR) signaling pathway (AID 743220; active = well fitted activation curve with a large enough effect in the signal ratio in the repeat runs, not every such curve was filed as active; inconclusive = weak or mixed curves, or effect the other way; the % refers to the signal ratio; note: potency is the fitted concentration of half-maximal effect); details: HEK293T FXR-UAS-bla, beta-lactamase FRET ratio, 16 h; activation: at 62.6 µM (top of the series) unless noted
Summary of the method: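 FXR-UAS-bla HEK 293T cells carrying a UAS-driven beta-lactamase reporter were plated for 5 h at 37C/5% CO2, then exposed to DMSO-dissolved Tox21 10K compounds for 16 h at 37C. A LiveBLAzer B/G FRET substrate was loaded for 2 h at room temperature before fluorescence reading.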

[16] = qHTS assay to identify small molecule agonists of the estrogen related receptor signaling pathway with the pleiotropic PPARgamma coactivator (PGC) from Tox21 10K library (AID 1224842); note: potency is the fitted concentration of half-maximal effect; nearly all actives have a fitted effect of over 15% in size
Summary of the method: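 PGC/ERR reporter cells (NTP line) were seeded 2,000 per well, rested 6 h at 37 C/5% CO2, then pin-dosed with compounds in DMSO for 18 h at 37 C; luciferase read by One-Glo luminescence after 30 min at room temperature.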

[17] = qHTS assay to identify small molecule agonists of the TGF-beta/Smad signaling pathway (AID 1346859; active = well fitted activation curve with a large enough effect in the signal ratio in the repeat runs, not every such curve was filed as active; inconclusive = weak or mixed curves; the % refers to the signal ratio; note: % is set by controls: 0 for no effect and ±100 for the full control effect)
Summary of the method: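 Stable Smad binding element-beta-lactamase HEK 293T cells; 5 hr compound exposure at 37 C under 5% CO2; 2 hr room-temperature substrate step; fluorescence excited at 405 nm, collected at 460 nm and 530 nm.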

[18] = qHTS RealTime-Glo MT Cell Viability Assay in HepG2 cells - 8 hour (AID 1224873); note: % is set by controls: 0 for no effect and ±100 for the full control effect; nearly all actives have a fitted effect of over 55% in size
Summary of the method: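 HepG2 cells mixed with RealTime-Glo MT reagents (NanoLuc plus cell-permeant prosubstrate) were seeded at 600 cells/well, incubated 5 h at 37 C/5% CO2, then pinned with compounds in DMSO; nonlytic luminescence tracked viability during 40 h treatment.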

[19] = biological target: Peroxisome proliferator-activated receptor gamma (Homo sapiens) (UniProt P37231); assay: qHTS assay to identify small molecule agonists of the peroxisome proliferator-activated receptor gamma (PPARg) signaling pathway (AID 743094; active = well fitted activation curve with a large enough effect in the signal ratio in the repeat runs, not every such curve was filed as active; inconclusive = weak or mixed curves, or effect the other way; inactive = no such curve, though single readings can be large or run the other way; the % refers to the signal ratio; note: % is set by controls: 0 for no effect and ±100 for the full control effect); details: HEK293H PPARg-UAS-bla, beta-lactamase FRET ratio, 17 h; activation: at 57 µM (top of the series) unless noted
Summary of the method: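 Cells from the PPARg UAS-bla HEK293H line are plated and incubated 5 h at 37C. Compounds in DMSO are pinned in and left 17 h at 37C. LiveBLAzer B/G substrate is then added for 1 h at room temperature before fluorescence is measured.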
Tags give direction and shape of the fitted curve or compound fluorescence and quenching.

UniProt P08684, sequence (P08684 whole entry, looked up): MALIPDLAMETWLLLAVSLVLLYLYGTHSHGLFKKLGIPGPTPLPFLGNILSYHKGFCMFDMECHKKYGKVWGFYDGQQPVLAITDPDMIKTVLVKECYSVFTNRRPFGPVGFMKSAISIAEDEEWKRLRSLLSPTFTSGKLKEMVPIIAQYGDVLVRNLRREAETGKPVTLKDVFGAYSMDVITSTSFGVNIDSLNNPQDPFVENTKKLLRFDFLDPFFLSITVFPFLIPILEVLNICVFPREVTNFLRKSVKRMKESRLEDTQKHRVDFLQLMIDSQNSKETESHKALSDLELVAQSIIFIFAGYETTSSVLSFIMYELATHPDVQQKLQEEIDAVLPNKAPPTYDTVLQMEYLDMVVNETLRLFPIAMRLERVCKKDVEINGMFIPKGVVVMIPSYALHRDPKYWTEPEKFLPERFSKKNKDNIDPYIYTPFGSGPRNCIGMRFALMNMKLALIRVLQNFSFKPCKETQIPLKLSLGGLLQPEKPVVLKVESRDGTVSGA
UniProt P06401, sequence (P06401 whole entry, looked up): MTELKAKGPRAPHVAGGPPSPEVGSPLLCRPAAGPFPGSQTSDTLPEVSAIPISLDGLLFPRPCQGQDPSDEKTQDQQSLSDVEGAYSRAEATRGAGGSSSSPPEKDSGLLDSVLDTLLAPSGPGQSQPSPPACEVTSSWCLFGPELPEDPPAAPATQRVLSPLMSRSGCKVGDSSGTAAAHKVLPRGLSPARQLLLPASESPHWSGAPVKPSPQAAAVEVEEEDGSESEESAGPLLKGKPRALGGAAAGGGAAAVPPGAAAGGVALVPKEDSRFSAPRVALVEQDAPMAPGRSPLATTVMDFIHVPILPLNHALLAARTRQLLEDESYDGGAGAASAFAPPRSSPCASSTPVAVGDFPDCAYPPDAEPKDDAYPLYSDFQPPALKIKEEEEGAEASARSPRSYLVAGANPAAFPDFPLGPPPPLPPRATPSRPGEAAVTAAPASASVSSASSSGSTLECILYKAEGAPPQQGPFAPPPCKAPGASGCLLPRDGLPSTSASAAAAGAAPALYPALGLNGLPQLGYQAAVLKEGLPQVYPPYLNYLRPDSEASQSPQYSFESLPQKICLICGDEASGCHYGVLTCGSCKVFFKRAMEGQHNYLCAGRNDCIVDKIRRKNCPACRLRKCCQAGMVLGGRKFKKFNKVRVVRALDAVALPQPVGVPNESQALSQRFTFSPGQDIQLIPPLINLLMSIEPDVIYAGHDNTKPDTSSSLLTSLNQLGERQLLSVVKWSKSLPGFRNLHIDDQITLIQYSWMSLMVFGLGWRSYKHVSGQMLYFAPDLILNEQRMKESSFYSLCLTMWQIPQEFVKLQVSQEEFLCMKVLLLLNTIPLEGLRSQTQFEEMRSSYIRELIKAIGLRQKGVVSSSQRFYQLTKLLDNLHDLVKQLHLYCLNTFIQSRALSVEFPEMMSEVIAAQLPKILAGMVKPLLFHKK
UniProt Q96RI1, sequence (Q96RI1 whole entry, looked up): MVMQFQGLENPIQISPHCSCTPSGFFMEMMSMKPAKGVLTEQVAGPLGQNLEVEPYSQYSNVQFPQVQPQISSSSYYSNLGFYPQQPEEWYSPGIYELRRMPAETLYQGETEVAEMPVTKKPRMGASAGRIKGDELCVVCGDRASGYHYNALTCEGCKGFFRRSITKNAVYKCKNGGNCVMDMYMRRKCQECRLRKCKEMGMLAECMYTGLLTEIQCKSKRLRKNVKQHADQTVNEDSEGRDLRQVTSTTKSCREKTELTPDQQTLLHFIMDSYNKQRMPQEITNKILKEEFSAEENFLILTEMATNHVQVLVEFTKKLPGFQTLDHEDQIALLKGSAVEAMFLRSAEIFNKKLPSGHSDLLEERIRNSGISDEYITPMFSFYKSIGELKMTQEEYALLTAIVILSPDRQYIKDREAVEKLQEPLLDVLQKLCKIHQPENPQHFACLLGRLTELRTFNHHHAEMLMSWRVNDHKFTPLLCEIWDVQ
UniProt P37231, sequence (P37231 whole entry, looked up): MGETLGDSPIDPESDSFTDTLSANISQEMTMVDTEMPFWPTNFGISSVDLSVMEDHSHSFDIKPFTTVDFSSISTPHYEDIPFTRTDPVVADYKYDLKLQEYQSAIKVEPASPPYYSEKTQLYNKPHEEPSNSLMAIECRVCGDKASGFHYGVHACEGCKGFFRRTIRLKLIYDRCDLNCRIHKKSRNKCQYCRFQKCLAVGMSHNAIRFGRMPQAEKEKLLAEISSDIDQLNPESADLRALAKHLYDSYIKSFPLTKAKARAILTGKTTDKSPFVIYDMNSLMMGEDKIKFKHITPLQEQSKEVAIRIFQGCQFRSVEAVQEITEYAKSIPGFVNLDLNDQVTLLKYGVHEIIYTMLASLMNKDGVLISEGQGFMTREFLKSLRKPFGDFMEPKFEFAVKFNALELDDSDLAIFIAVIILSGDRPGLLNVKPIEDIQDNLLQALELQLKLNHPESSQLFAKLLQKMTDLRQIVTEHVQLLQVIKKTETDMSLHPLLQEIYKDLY

CCCN(C1CCN(C(=O)C2CCNCC2)CC1)[C@@H]1CCc2ccc(OC)cc2C1
Potency [1]: inactive | Potency [2]: inconclusive [cytotoxic, single point] | Potency [3]: inconclusive [rising, partial curve, poor fit] | Potency [4]: inconclusive [activator, single point] | Potency [5]: inconclusive [activator, single point] | Potency [6]: inconclusive [activator, single point] | Potency [7]: inconclusive [cytotoxic, single point] | Potency [8]: inconclusive [cytotoxic] | Potency [9]: inconclusive [inhibitor, partial curve]

Cc1ncsc1CCO
Potency [10]: inactive | Potency [2]: inactive | Potency [11]: inactive | Potency [6]: inactive | Potency [12]: inconclusive [rising, single point]

O=C(O)c1ccncc1
Potency [4]: inactive

CC(CCO)CCCC(C)(C)O (configuration not stated)
Potency [1]: active: 27.3 µM

C=C(C)C(=O)OCCOC(=O)CC(C)=O
Potency [6]: inactive | Potency [9]: inconclusive [inhibitor, partial curve]

Nc1ccc(C(=O)NCC(=O)O)cc1
Potency [13]: inactive

CC(C[N+](C)(C)C)OC(N)=O (configuration not stated)
Potency [2]: inactive | Potency [14]: inconclusive [activator, partial curve, poor fit] | Potency [8]: inactive

CC1(COc2ccc(CC3SC(=O)NC3=O)cc2)CCCCC1 (configuration not stated)
activation [1]: inconclusive: -8.71% [phenotype inactive] | Potency [2]: inconclusive [cytotoxic, single point] | Potency [15]: inconclusive [activator, single point] | Potency [16]: inconclusive [activator, partial curve] | Potency [5]: inconclusive [activator, single point] | Potency [6]: inactive

CC(C)(C)NC[C@H](O)COc1nsnc1N1CCOCC1
Potency [5]: inconclusive [activator, partial curve, poor fit] | Potency [6]: inconclusive [activator, partial curve, poor fit]

CCCCCCCCCCCCCCCCI
activity change, negative = inhibition [9]: inactive: -0.102% [at 23.6 µM]

O=C(O)c1cccc(O)c1
Potency [3]: inactive | Potency [17]: inactive

O=c1cc[nH]c(=S)[nH]1
Potency [10]: inactive | Potency [5]: inconclusive [activator, partial curve, poor fit] | Potency [6]: inconclusive [activator, partial curve, poor fit]

COC(=O)c1cc(Cl)ccc1[N+](=O)[O-]
activation [1]: inconclusive: 0.743% [phenotype inactive]

CCCCCCCCc1ccc(Nc2ccc(CCCCCCCC)cc2)cc1
Potency [12]: inactive

CC1(C)OC(=O)Nc2ccc(Br)cc21
Potency [15]: inactive | Potency [8]: inactive

CC1(C)CC(O)CC(C)(C)N1[O]
Potency [5]: inactive | Potency [6]: inconclusive [activator, partial curve]

CC(=O)OC(C(=O)c1ccccc1)c1ccccc1 (configuration not stated)
Potency [3]: inactive

COc1ccc(C)cc1N
Potency [3]: inactive | Potency [6]: inconclusive [activator, partial curve]

CCc1c(Br)c(Br)c(Br)c(Br)c1Br
Potency [8]: inactive | Potency [12]: inconclusive [rising, partial curve, poor fit]

CC(C)(C)c1ccc(S)cc1
activation [13]: inconclusive: 7.34% | Potency [7]: inactive

Cc1scc2c1N(C(=O)CN1CCN(C)CC1)c1ccccc1NC2=O
Potency [18]: inactive

CC1=CC(=O)[C@H]2C[C@@H]1C2(C)C
Potency [19]: inactive | Potency [18]: inactive | Potency [9]: inactive

O=C(c1ccccc1)c1cccc(O)c1
Potency [9]: inconclusive [inhibitor, single point]

C=COC(=O)C(C)(CC)CCC(C)C (configuration not stated)
Potency [8]: inactive | Potency [9]: inconclusive [inhibitor, full curve]

O=Cc1ccccc1[N+](=O)[O-]
Potency [2]: inactive

O=C(O)c1c(Cl)ccc(Cl)c1Cl
Potency [1]: inconclusive [activator, partial curve, poor fit] | Potency [10]: inactive | Potency [19]: inactive

CCCCCCC(=O)O
Potency [10]: inconclusive [rising, partial curve, poor fit] | Potency [13]: inactive
